Source: PubChem BioAssay AID485273 (Sanford-Burnham Center for Chemical Genomics, 2010)
In all, about 330,000 compounds went through this assay and about 1,500 (0.45%) were called active. This list was built around the results that the source calls inconclusive (neither active nor inactive); the mix of calls is not that of the screen. No stated cut-off is given here; in the data, active means inhibition above about 45% (passing the limit was not always enough); inconclusive means no clear call, values can overlap the other calls.

target: Ubiquitin-conjugating enzyme E2 N (Homo sapiens) (UniProt P61088); experiment: blockers of UBC13 ubiquitin chain synthesis – biochemical, TR-FRET, uHTS, primary screen (AID 485273); conditions: UBC13 polyubiquitin chain formation, at 20 µM, hits give high values
UniProt P61088, sequence (P61088 whole entry, looked up): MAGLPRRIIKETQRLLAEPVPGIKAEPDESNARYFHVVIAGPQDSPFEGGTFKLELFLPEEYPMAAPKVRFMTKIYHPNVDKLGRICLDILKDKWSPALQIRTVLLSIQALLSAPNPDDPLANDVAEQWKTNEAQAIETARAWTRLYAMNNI

How did the inhibition turn out when O=c1oc2ccccc2c(O)c1[C@H]1c2ccc(O)cc2Oc2c1c(=O)oc1ccccc21 was run?
The inhibition was inconclusive: 76.8%.

How did the inhibition turn out when COc1cc(-n2c(=S)[nH]c3ccc(C)cc3c2=O)c(Cl)cc1Cl was run?
Its inhibition is inconclusive: 83.8%.

For Cc1ccc(-n2c(C)cc(/C=C3\C(=O)NC(=O)N(C)C3=O)c2C)cc1C, which inhibition is on record?
Its inhibition is inconclusive: 88.6%.

How did the inhibition turn out when COC(=O)C1=C(c2ccc(OCc3ccccc3)cc2)C[C@@H]2CC[C@H]1N2C(=O)NCCCc1ccccc1 was run?
Its inhibition is inconclusive: 74%.

For O=c1c2cc(Br)ccc2[nH]c(=S)n1-c1ccccc1, which inhibition is on record?
Its inhibition is active: 46.5%.

Which inhibition does the source give for CCn1cc(C(=O)c2cccs2)c2ccccc21 here?
The inhibition was inconclusive: 80.9%.

Which inhibition does the source give for C[C@]12CCC3C(CC[C@H]4C[C@@H](O)CC[C@]34C)C1CC[C@@H]2OC(=O)[C@H](N)CCCCN (stereo not given in full) here?
The inhibition was active: 105%.

With CCCCCCn1c(O)c(C=NC2CCCCC2N)c(=O)[nH]c1=O (stereo not given) as the compound, how does the inhibition read?
The inhibition was inactive: -2.4%.

O=C(C(=O)N1CCOCC1)c1cn(Cc2ccccc2)c2ccccc12 was tested. Which inhibition did it give?
Its inhibition is active: 45.3%.

How did the inhibition turn out when COCCCNC(=O)c1c(NC(=O)c2ccccc2Cl)n(Cc2ccccc2)c2nc3ccccc3nc12 was run?
The inhibition was inconclusive: 56.8%.

Which inhibition does the source give for c1ccc2c(c1)-c1cccc3cccc-2c13 here?
Its inhibition is inconclusive: 84.6%.

How did the inhibition turn out when COc1ccccc1NC(=O)c1cn(CCC#N)nc1-c1ccc(F)cc1 was run?
Its inhibition is inconclusive: 78%.

Which inhibition does the source give for CC(=O)OC1N=C(c2ccc(Cl)cc2)c2cc(Br)ccc2NC1=O (stereo not given) here?
The inhibition was inactive: 18.6%.

Which inhibition does the source give for CC#CP(=O)(OC)C(O)(CF)c1ccccc1 (stereo not given) here?
The inhibition was inactive: -16.3%.

For N#Cc1ccccc1Cn1cc(C(=O)c2cccs2)c2ccccc21, which inhibition is on record?
Its inhibition is inconclusive: 54.9%.

For COC(=O)C1=C(c2ccc(-c3ccccc3)c(F)c2)C[C@@H]2CC[C@H]1N2C(=O)NC1Cc2ccccc2C1, which inhibition is on record?
The inhibition was inconclusive: 67.3%.

c1ccc2c(CN3CCCCCC3)c[nH]c2c1 was tested. Which inhibition did it give?
Its inhibition is inconclusive: 85.5%.

For Clc1ccc(C[n+]2c(-c3ccccc3)cc(-c3ccccc3)cc2-c2ccccc2)cc1, which inhibition is on record?
The inhibition was active: 46.6%.

With O=C(c1cccs1)c1cn(Cc2ccccc2Cl)c2ccccc12 as the compound, how does the inhibition read?
The inhibition was inconclusive: 51.7%.

CC(=O)Nc1ccccc1C(=O)OCc1ccc(C(=O)c2ccccc2)cc1 was tested. Which inhibition did it give?
The inhibition was inconclusive: 79.1%.

With CC1=NOC2(C)Nc3ncnn3C(c3ccccc3)C12 (stereo not given) as the compound, how does the inhibition read?
The inhibition was inconclusive: 84%.

Cc1ccc2c(c1)C1CN(C)CCC1N2C(=O)/C=C/c1ccc2c(c1)OCO2 (stereo not given) was tested. Which inhibition did it give?
The inhibition was inactive: -12.5%.

Which inhibition does the source give for CCCCCn1c(=O)c(C(=O)Nc2ccccn2)c(O)c2ccccc21 here?
The inhibition was inconclusive: 54.8%.

With COc1ccc(OC)c(N2C(=O)/C(=C/c3ccco3)C(=O)NC2=S)c1 as the compound, how does the inhibition read?
The inhibition was inconclusive: 85%.

For NC(Cc1cc(O)c(O)cc1O)C(=O)O (stereo not given), which inhibition is on record?
Its inhibition is inconclusive: 87.5%.

Which inhibition does the source give for CC(C)(C)n1cc(C(=O)c2ccccc2)cc1-c1ccccc1 here?
Its inhibition is inactive: 13.2%.

C1=NCCc2c1[nH]c1ccccc21 was tested. Which inhibition did it give?
The inhibition was inconclusive: 87.1%.

For COc1ccc(-c2[nH]ncc2CNC(C)Cc2ccsc2)c(F)c1 (stereo not given), which inhibition is on record?
The inhibition was inconclusive: 67.2%.

O=C1NC(=S)N(c2ccc(F)cc2)C(=O)/C1=C/c1ccco1 was tested. Which inhibition did it give?
Its inhibition is inconclusive: 84.3%.

Which inhibition does the source give for Nc1c(C(=O)NCCc2ccccc2)c2nc3ccccc3nc2n1CCN1CCOCC1 here?
The inhibition was inactive: 40.9%.

For O=C(c1cc(F)ccc1F)C1CCCN(Cc2ccc3nonc3c2)C1 (stereo not given), which inhibition is on record?
Its inhibition is inactive: 1.3%.

For Cc1cccc(N2CCc3c2nc2ccccc2c3N)c1, which inhibition is on record?
The inhibition was inconclusive: 75.4%.

Which inhibition does the source give for O=C1N(c2ccccc2)C(c2cccnc2)N2CCCN12 (stereo not given) here?
Its inhibition is inactive: 0.7%.

How did the inhibition turn out when Cc1ccc2c(c1)C1CN(C)CCC1N2C(=O)CCCN1C(=O)c2cccc3cccc(c23)C1=O (stereo not given) was run?
Its inhibition is active: 88.8%.

Which inhibition does the source give for Cc1ccc(S(=O)(=O)NCC2CCC(C(=O)N3CCC4(CC3)OCCO4)CC2)cc1 (stereo not given) here?
The inhibition was inconclusive: 82.5%.

With COc1cccc(C2(O)CCN(Cc3ccncc3)CC2)c1 as the compound, how does the inhibition read?
Its inhibition is inconclusive: 83.6%.

Which inhibition does the source give for C1=C(c2c[nH]c3ccccc23)CCNC1 here?
Its inhibition is active: 96.2%.

COC(=O)C1=C(c2ccc(F)cc2OCc2ccccc2)C[C@@H]2CC[C@H]1N2C(=O)NCc1ccc(OC)c(OC)c1 was tested. Which inhibition did it give?
The inhibition was inconclusive: 73.4%.

Which inhibition does the source give for CCN1C(=O)C(=C2C=C(C)N(Cc3ccco3)C(C)=C2)C(=O)N(CC)C1=S here?
Its inhibition is inconclusive: 83.2%.

COc1cc(-n2c(=S)[nH]c3ccccc3c2=O)c(Cl)cc1Cl was tested. Which inhibition did it give?
The inhibition was inconclusive: 75.5%.
